# Measured values taken from PubChem BioAssay AID686978 (National Center for Advancing Translational Sciences (NCATS), 2013).
# The whole screen tested about 420,000 compounds, of which about 64,000 (15%) were called active. This list was built around the results that the source calls inconclusive (neither active nor inactive); the mix of calls is not that of the screen. Calls follow the shape of the dose curve; as a rule, active = well fitted inhibition curve with a large enough effect; inconclusive = small, poorly fitted or top-dose-only effect; inactive = flat fitted curve, though single readings scatter. Potencies of inconclusive entries are left out as doubtful fits.
# Experiment: qHTS for Inhibitors of human tyrosyl-DNA phosphodiesterase 1 (TDP1): qHTS in cells in absence of CPT; also: nearly all actives have a fitted effect of over 55% in size
# Conditions: DT40 Tdp1-/- hTDP1 cells, no CPT, ATP luminescence, 48 h; activity change, negative = growth inhibition: at 46.2 µM (top of the series) unless noted
# In short: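 No-CPT arm: Tdp1-/-;hTDP1 DT40 cells (400/well) plus compounds, incubated ≥48 hr at 37 °C. Readout CellTiter-Glo luminescence.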
# % is scaled to controls: 0 for no effect and ±100 for the full control effect; potency is read from the fitted curve at half-maximal effect; tags tell the direction and shape of the fitted curve.
Compound,Potency,"activity change, negative = growth inhibition"
CNCc1ccccc1Sc1ccc(OC)cc1,"inconclusive [inhibitor, single point]",–
CCCCNC(=O)c1cc2c(=O)n3cccc(C)c3nc2n(CCN2CCOCC2)c1=N,"inconclusive [inhibitor, single point]",–
OC1(C2(O)CC(c3ccccc3)ON2)CCCCC1 (centres undefined),active: 18.4 µM,–
CCOC(=O)c1cccc(NC(=O)c2cc3sccc3n2C)c1,active: 20.6 µM,–
COc1cc(NC(=O)CSc2nc(C3CC3)nc3ccccc23)cc(OC)c1,"inconclusive [inhibitor, partial curve]",–
O=C(CN1Cc2ccccc2OC(c2ccccc2F)C1)NC(c1ccccn1)C(F)(F)F (centres undefined),"inconclusive [inhibitor, single point]",–
CCn1c(=O)sc2cc(NC(=O)c3cccc(OC)c3)ccc21,"inconclusive [inhibitor, single point]",–
Cc1ccc(C(=O)C2=C(O)C(=O)N(Cc3cccnc3)C2c2ccc(N(C)C)cc2)o1 (centres undefined),–,inactive: -24.1%
COc1ccc(N2CCN(C(=O)Cc3nn(C)c(=O)c4ccccc34)CC2)cc1,"inconclusive [inhibitor, partial curve, poor fit]",–
CCOC(=O)c1sc(-c2ccc(OC)cc2)cc1N,–,inactive: -21.8%
N#CCSc1nnc(COc2cccc3ccccc23)n1-c1cccc(Cl)c1,active: 20.6 µM,–
CCc1nc2c(OCC(=O)C(C)(C)C)cccn2c1N(C=O)Cc1ccc(OC)cc1,"inconclusive [inhibitor, single point]",–
COc1ccccc1CNC(=O)C(=O)c1cn(CC(=O)N2CCCCC2)c2ccccc12,"inconclusive [inhibitor, single point]",–
CCN1CCN(c2nnc(-n3cccc3C(=O)Nc3cccc(OC)c3)s2)CC1,"inconclusive [inhibitor, single point]",–
Cc1ccccc1CNC(=O)CCC(=O)N1Cc2ccccc2Oc2ncccc21,–,inactive: -21.1%
CN(CCOc1ccc(Cl)cc1)C(=O)c1cccc(S(=O)(=O)N2CCN(c3ccc(F)cc3)CC2)c1,active: 5.17 µM,–
O=S(=O)(c1ccccc1)C1Cc2ccccc2C1Cl (centres undefined),–,inactive: -6.37%
Cc1ccc2c(c1)CCC2=O,"inconclusive [inhibitor, single point]",–
O=C(CSC1=NS(=O)(=O)c2ccccc2N1)N1CCCCC1,–,inactive: 9.32%
Cc1ccc(-c2noc(C3CCCCC3)n2)cc1,–,inactive: -27.6%
O=C(/C=C/c1cccc([N+](=O)[O-])c1)NC(=S)Nc1cccc(NC(=O)c2ccccc2Cl)c1,active: 13 µM,–
CN1CCC[C@H]1CCNc1ccc2c(=O)c3ccccc3n(C)c2c1,"inconclusive [inhibitor, single point]",–
COc1ccc(/C=C2\SC(=S)N(CCCC(=O)N3CCOCC3)C2=O)cc1OC,–,inconclusive: -31.6% [inhibitor]
O=C(NCCOC(=O)c1ccccc1)c1ccc([N+](=O)[O-])cc1,–,inactive: -31.1%
Nc1nc2c(ncn2[C@@H]2O[C@H](COP(=O)(O)OP(=O)(O)O)[C@@H](O)[C@H]2O)c(=O)[nH]1,–,inactive: -15.1%

Compound,Potency,"activity change, negative = growth inhibition"
CCN(CC(=O)Nc1ccc2c(c1)OCCO2)C(=O)C(C)Oc1ccc(Cl)cc1 (centres undefined),–,inactive: -23%
CN(C)C(=O)c1ccc(-c2nc(NCc3cccs3)c3ccccc3n2)cc1,"inconclusive [inhibitor, single point]",–
O=c1cc(-c2ccccc2)c2cc3c(cc2[nH]1)OCCO3,"inconclusive [inhibitor, partial curve]",–
CC(=O)Nc1cc2c(cc1Cl)-c1ccc(F)cc1C2O (centres undefined),"inconclusive [inhibitor, single point]",–
Cc1ccc(SCCNC(=O)c2ccccc2F)cc1,"inconclusive [inhibitor, single point]",–
CC(C)n1c(SCC(=O)Nc2ccccc2N2CCCCC2)nc2c1c(=O)n(C)c(=O)n2C,active: 23.1 µM,–
O=C(NNC(=S)Nc1ccc(F)cc1)C1[C@H]2CCCC[C@@H]12 (some centres undefined),–,inactive: -0.12%
COc1ccc(S(=O)(=O)Nc2ccccc2C(F)(F)F)cc1,"inconclusive [inhibitor, single point]",–
COCCC1CCCCN1Cc1cn(-c2ccccc2)nc1-c1ccc2c(c1)OCO2 (centres undefined),"inconclusive [inhibitor, partial curve]",–
COc1ccc(NC(=O)CN(C)C(=O)c2oc3c(ccc4ccccc43)c2C)cc1,"inconclusive [inhibitor, single point]",–
COc1ccccc1CNc1nc(NC(C)C)nc2ccsc12,active: 11.6 µM,–
Cc1cc(C)n(-c2cccc(C(=O)NCC3Cc4cccc(-c5ccccn5)c4O3)c2)n1 (centres undefined),active: 11.6 µM,–
COC(=O)c1ccc2[nH]c(C(C)(C)O)c(C)c2c1,"inconclusive [inhibitor, single point]",–
O=S(=O)(c1ccccc1)c1nc(-c2cccs2)oc1SCc1ccccc1Cl,"inconclusive [inhibitor, single point]",–
COc1ccccc1N/N=C/c1c(CO)cnc(C)c1O,–,inconclusive: -30.8% [inhibitor]
CCNC(=O)C1(C)CCCN1C(=O)c1c(F)cccc1F (centres undefined),–,inactive: -12.5%
NC(=O)c1ccc(NC(=O)COC(=O)C2(c3cccc(F)c3)CCCC2)cc1,active: 25.9 µM,–
COC(=O)c1ccc(CSc2ccccc2NC(=S)Nc2cccc(SC)c2)o1,"inconclusive [inhibitor, single point]",–
O=C(NCc1ccc(F)c(F)c1)c1cccc2c(-c3cccnc3)coc12,"inconclusive [inhibitor, single point]",–
Cc1ccc(OCc2nc(-c3ccc(C(=O)N4CCN(c5cc(Cl)ccc5C)CC4)cc3)oc2C)cc1,active: 11.6 µM,–
O=C(/C=C/c1ccccc1)c1ccc(NC2=NCCCS2)cc1,active: 11.6 µM,–
CC(C)[C@H](NS(=O)(=O)c1ccc(Cl)cc1)C(=O)OCC(=O)c1c(N)n(C)c(=O)n(C)c1=O,active: 20.6 µM,–
O=C(CSc1nnc(Cc2csc(Nc3cccc(Cl)c3)n2)o1)N1CCc2ccccc21,active: 20.6 µM,–
Clc1ccc2c(Cl)cc[n+](CCC3CCCCC3)c2c1,"inconclusive [inhibitor, single point]",–
COc1ccc(-c2nc3cnc(N(C)C)nc3n(C3CC3)c2=O)cc1,–,inactive: -16.5%

Compound,Potency,"activity change, negative = growth inhibition"
CC(C)N(C(=O)/C=C/c1cccc([N+](=O)[O-])c1)C(C)C,"inconclusive [inhibitor, single point]",–
O=C(CN1C(=O)NC2(CCCC2)C1=O)NCC1CCCO1 (centres undefined),–,inactive: 5.83%
COC(=O)c1ccc(C(=O)OC)c(NC(=O)N2CC3CCCN3c3ccccc32)c1 (centres undefined),"inconclusive [inhibitor, single point]",–
COc1ccc(Cl)cc1C(=O)NNC(=O)c1[nH]c(C)c(C(C)=O)c1C,"inconclusive [inhibitor, single point]",–
Cc1ccc(/C=C2\SC(=S)N(CCCC(=O)N3CCOCC3)C2=O)cc1,"inconclusive [inhibitor, single point]",–
Cc1ccc(Cl)cc1N1CCN(C(=O)C2CCN(c3nnc(-n4cccc4)s3)CC2)CC1,active: 16.4 µM,–
CCOC(=O)CC(=O)CSc1nc2ccccc2c(=O)n1-c1ccc(C(=O)NCCOC)cc1,"inconclusive [inhibitor, single point]",–
CNC(=S)N/N=C/c1cn(Cc2c(F)cccc2Cl)c2ccccc12,active: 11.6 µM,–
CC(=O)Nc1ccc(NC(=O)c2cccc3c2-c2ccccc2C3=O)cc1,active: 18.4 µM,–
COc1ccc(-c2cc(C(=O)Nc3ccc(C(N)=O)cc3)c3ccccc3n2)cc1,active: 6.51 µM,–
Cc1c(Cc2ccccc2)c(=O)oc2cc(OCC(=O)NCC(O)c3ccccc3)ccc12 (centres undefined),active: 18.4 µM,–
O=C(COc1cccc(Cl)c1)Nc1ccc(N2CCOCC2)cc1,"inconclusive [inhibitor, partial curve]",–
CSc1nc(N)c(NC(=O)c2ccc(Br)o2)c(=O)[nH]1,"inconclusive [inhibitor, single point]",–
COc1cccc2cc(CC(=O)c3ccc(C)c(C)c3)c(=O)oc12,–,inactive: -3.1%
O=C(Oc1coc(CSc2ncccn2)cc1=O)c1ccc(Br)o1,"inconclusive [inhibitor, single point]",–
COc1cc(-c2nc(Cc3ccccc3Cl)no2)cc(OC)c1OC,"inconclusive [inhibitor, partial curve]",–
NC(=O)CC(NC(=O)Cc1ccc(Cl)cc1)c1ccc(NC2CCCC2)c([N+](=O)[O-])c1 (centres undefined),"inconclusive [inhibitor, single point]",–
CCOc1ccc(C(O)(c2ccccc2)C(CN2CCCC2)c2ccccc2)cc1 (centres undefined),active: 7.31 µM,–
CS(=O)(=O)N1CCC(C(=O)Nc2ccc(Cl)c(Cl)c2)CC1,"inconclusive [inhibitor, single point]",–
Cc1ccc(S(=O)(=O)N2CCN(C3CC(=O)N(Cc4ccccc4)C3=O)CC2)cc1C (centres undefined),"inconclusive [inhibitor, single point]",–
COC(=O)C1=C(C)NC(C)=C(C(=O)OC)C1c1cc2cc(C)ccc2[nH]c1=O,–,inactive: -25.2%
CCOC(=O)c1cc(-c2ccccc2)n(-c2cccc(C(=O)Nc3cccc(C)c3)c2)c1C,active: 23.1 µM,–
O=C(O)CC1S/C(=N/N=C/c2ccccn2)NC1=O (centres undefined),–,inactive: -10.7%
CCN(c1ccccc1)S(=O)(=O)c1ccc(OC)c(NC(=O)CNCCc2ccccc2)c1,active: 20.6 µM,–
